In PubChem BioAssay AID1963869 (Molecular Pharmacology Branch, DTP, NCI, 2024) one finds viability, T/C and IC50 data, which are given here for six molecules.

Certain results were filed several times, with different values. Only these are listed. An entry can have further records. The values listed for one entry are repeated measurements across runs, samples, wells, individuals or studies. Dates in brackets are months of testing. Additions like (4×) count equal records among those shown. Where only a bound is given, the exact number is not on record here.

The experiment concerns KRAS patient-derived spheroids with HUVEC/MSC, viability. Description: Anticancer human tumor 323965-272-R-J2-PDC patient-derived pancreatic carcinoma cell line growth inhibition [KRAS2]. The following applies: for viability, T/C: stronger effect = lower value; for IC50: compound alone, run of 08/19/2021. An excerpt:
Multicellular complex tumor spheroid response to RAS pathway inhibitors in combination with a targeted agents in patient-derived cell lines with oncogenic KRAS variants from multiple cancer types
A high-throughput screen of multi-cell type tumor spheroids was designed to identify active combinations of targeted small molecules and KRAS pathway inhibitors. Complex spheroids include a stromal component modeled by human endothelial cells (HUVEC) and fibroblasts modeled by human mesenchymal stem cells (MSCs). The concentration ranges selected for each drug and investigational agent were based upon clinically achievable concentrations if the clinical Cmax of the agent was known.
Compounds. The drugs and investigational agents: BI-3406 (NSC825286), BAY-293 (NSC824723), batoprotafib (TNO155; NSC825523), sotorasib (AMG 510; NSC818433), MRTX1257 (NSC819558), elimusertib (BAY 1895344; NSC800525), molibresib (GSK525762; NSC774829), temuterkib (LY3214996; NSC803410), venetoclax (NSC766270), alisertib (NSC759677), olaparib (NSC753686), talazoparib (NSC767125), erdafitinib (NSC781556), ipatasertib (NSC767898), cabozantinib (NSC761068), nintedanib (NSC756659), abemaciclib (NSC768073), docetaxel (NSC628503), trametinib (NSC758246), and sapanisertib (NSC764658) were obtained from the National Cancer Institute (NCI) Developmental Therapeutics Program Chemical Repository. The FDA-approved anticancer drug set is available from the Developmental Therapeutics Program. […] The stock solutions were prepared in dimethyl sulfoxide (DMSO, Sigma-Aldrich, St. Louis, MO, cat. D2650) at 800-fold the tested concentration and stored at -70 degrees C prior to their use. All drugs and investigational agents were tested over a range starting from a high concentration at or near the clinical Cmax and decreasing in half-log increments. If the clinical Cmax for an agent had not been determined, the highest concentration tested was 10 microM.
Cell Culture. All cells were maintained in an incubator at 37 degrees C and 5% CO2 with 95% humidity. The PDC lines were cultured according to standard operating procedures established by the NCI PDMR (https://pdmr.cancer.gov/sops/default.htm). Briefly, all PDCs were thawed and cultured in Matrigel-coated flasks prepared with a working solution of 1X Ham's F-12 nutrient mix, without supplementation (Invitrogen, Waltham, MA, cat. 11765054), 100 U/mL penicillin-streptomycin (Invitrogen, cat. 15140122), and 2.5% Matrigel (Corning Inc., Corning, NY, cat. 354248) for the first three passages. All PDCs were cultured in complete DMEM/F-12 media containing advanced DMEM/F-12 (Invitrogen, cat. 12634028), 4.9% defined fetal bovine serum, heat inactivated (HyClone Laboratories Inc., Logan, UT, cat. SH30070.03HI), 389 ng/mL hydrocortisone (Sigma-Aldrich, cat. H4001), 9.7 ng/mL human EGF recombinant protein (Invitrogen, cat. PHG0313), 23.4 microg/mL adenine (Sigma-Aldrich, cat. A2786), 97.3 U/mL penicillin-streptomycin (Invitrogen, cat. 15140122), 1.9 mM L-glutamine (Invitrogen, cat. 25030081), and 9.7 microM Y-27632 dihydrochloride (Tocris Bioscience, Bristol, United Kingdom, cat. 1254). The PDCs were cultured in complete DMEM/F12 media without 9.7 microM Y-27632 dihydrochloride for at least two passages prior to the screen. The established cell line HOP-62 was cultured in RPMI 1640 medium, HEPES (Invitrogen, cat. 22400105) with 10% defined fetal bovine serum (HyClone Laboratories Inc., cat. SH30070.03) and 2 mM L-glutamine (Invitrogen, cat. 25030081). The pooled donor HUVEC were cultured in endothelial cell growth medium 2 (PromoCell, Heidelberg, Germany, cat. C-22011) and the hMSC were cultured in mesenchymal stem cell growth medium 2 (PromoCell, cat. C-28009). For all experiments, HUVEC and hMSC were used at passages </=5, while the malignant cell lines were used at passages </=15. […]
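Note: spheroids exposed to agents for 7 days.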
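Throughout, for viability, T/C: 100% = DMSO vehicle control viability.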

As for `COc1cc2nc(C)nc(NC(C)c3cc(N)cc(C(F)(F)F)c3)c2cc1OC1CCOC1` (configuration not stated), the viability, T/C (compound alone 0.1 µM) was 80.4, 87.7, 82.5, 98.1, 80, 77.1, 85.8, 79.8, 82.3, 78.3, 81.2% [2021-08] and 70.8, 70.1, 79.6, 72.1, 65.2, 76.9% [2021-09]; the viability, T/C (compound alone 1 µM) is 75, 75.9, 98.2, 71.2, 75.7, 68.6, 82.8, 70.3, 81.5, 78, 79% [2021-08] and 64.3, 70.6, 85.7, 71.7, 63.8, 59.8% [2021-09]; the viability, T/C (compound alone 10 µM) is 78.9, 83.3, 75.5, 93.1, 83.7, 71, 77.9 (2×), 78.6, 90.1, 62.2% [2021-08] and 71.6, 68.6, 69.1, 77.4, 67.2, 55.9% [2021-09].

With `COC(=O)c1ccc2c(C(=Nc3ccc(N(C)C(=O)CN4CCN(C)CC4)cc3)c3ccccc3)c(O)[nH]c2c1`, for the setting “compound alone 10 µM”, the viability, T/C is recorded as 38.3, 38.8, 98.3, 89.4, 105%.

Usually IC50 stands for the concentration needed to halve the response being measured. For the molecule `CNCc1ccccc1-c1csc(C(C)Nc2nc(C)nc3cc(OC)c(OC)cc23)c1` (configuration not stated), the IC50 was > 10 µM, 5.05 µM, 5.26 µM, 5.49 µM, 5.74 µM, 5.08 µM. For the same molecule, the viability, T/C (compound alone 0.1 µM) was 87.1, 80.6, 92.3, 91.2, 93.2, 83.6, 87.9, 92, 100, 89% [2021-08] and 93.6, 87.3, 91.1, 102, 73.2, 86.7% [2021-09]. For the same molecule, under “compound alone 3.16 µM”, the viability, T/C is 83.4, 88.8, 97.7, 96.2, 98.9, 87.7, 85, 91.3, 103, 83.6% [2021-08] and 80.3, 81.5, 88.2, 82, 74.3, 83.5% [2021-09]. Further, under “compound alone 10 µM”, the viability, T/C was 82.9, 0.31 (2×), 0.32, 5.31, 8.31, 0.21 (2×), 0.23% [2021-08] and 0.21%, 0.19%, 0.16% [2021-09].

For `CCN1CCN(Cc2ccc(Nc3ncc(F)c(-c4cc(F)c5nc(C)n(C(C)C)c5c4)n3)nc2)CC1`, under “compound alone 0.01 µM”, the viability, T/C is 105, 96.9, 96.3, 95.7, 79.8%.

In the case of `C=CC(=O)N1CCN(c2nc(OCC3CCCN3C)nc3c2CCN(c2cccc4cccc(C)c24)C3)CC1CC#N` (configuration not stated), the concentration for half-maximal inhibition (IC50) was > 3.16 µM, 1.55 µM, 1.14 µM, 1.64 µM, 1.53 µM, 1.32 µM. For the same molecule, the viability, T/C (compound alone 0.316 µM) is 64.5 (2×), 60.4, 61.1, 58.8, 51.7, 63.4, 54.1, 61.2, 60.9, 59% [2021-08] and 54.4, 114, 60.5, 48.8, 50, 50.8% [2021-09]. Further, the viability, T/C (compound alone 3.16 µM) is 98.2, 32.5, 32.2, 31.2, 20.8, 23.3, 22.7, 24.7, 9.86, 14.9, 12% [2021-08] and 3.61, 12.2, 11, 9.84, 5.39, 2.47% [2021-09].

Turning to `CC1OCC2(CCN(c3cnc(Sc4ccnc(N)c4Cl)c(N)n3)CC2)C1N` (configuration not stated), the IC50 was 2.08 µM, > 10 µM, 2.2 µM, 695 nM, 1.17 µM, 1.35 µM. Besides, the viability, T/C (compound alone 0.1 µM) is 61, 86.2 (2×), 76.8, 79.8, 69.6, 75.2, 76.2, 71.3, 78.4, 77.7% [2021-08] and 81.4, 73.4, 78.6, 76.4, 78.3, 81, 77.5, 78% [2021-09]. Further, the viability, T/C (compound alone 1 µM) was 85.6, 101, 99, 50.2, 52.6, 51.5, 44.1, 52.5, 48.2, 49.3, 43.7% [2021-08] and 52, 42.3, 62.5, 34.8, 45.2, 39.4, 37.5, 40.7, 50.3% [2021-09]. The viability, T/C (compound alone 3.16 µM) was 40, 35.8, 36.7, 35.6, 37.6, 42.8, 40.6, 39.8, 40.5, 33.5, 19.3% [2021-08] and 34, 27.4, 36.3, 17.9, 17.6, 23.9, 23.8, 24.7, 38% [2021-09]. Further, the viability, T/C (compound alone 10 µM) is 39.8, 103, 33, 36.1, 29.8, 35.2, 28.1, 32.4, 33.2, 28.8, 22.3% [2021-08] and 19, 25.9, 16.3, 14.7 (2×), 16.1, 18.7, 24.1% [2021-09].
